Data reported in PubChem BioAssay AID504832 (National Center for Advancing Translational Sciences (NCATS), 2011).
In all, about 310,000 compounds went through this assay and about 18,000 (5.8%) were called active. Inconclusive results, whose numbers are uncertain, are shown with a selection of clear calls. Calls follow the shape of the dose curve; as a rule, active = well fitted inhibition curve with a large enough effect; inconclusive = small, poorly fitted or top-dose-only effect, or another doubt; inactive = no such curve, though single readings can be large or run the other way. No potency is given beside an inconclusive call; the fits are too rough.
Potency is read from the fitted curve at half-maximal effect; tags tell the direction and shape of the fitted curve.

Experiment: Primary qHTS for delayed death inhibitors of the malarial parasite plastid, 48 hour incubation
Details: P. falciparum luciferase growth in erythrocytes; series mostly up to 28.7 µM
In short: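 Parasite viability was followed by luminescence of a genomically integrated firefly luciferase. Cultures held 0.1% parasitemia at 2% hematocrit (final), incubated under 5% CO2 at 37 C.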
In the case of `Cc1noc(C)c1COc1ccccc1C(=O)N1CCN(S(=O)(=O)c2ccccc2F)CC1`, the Potency was inconclusive [inhibitor, partial curve]. In the case of `CCOC(=O)c1c(CSC(=N)N)n(-c2ccc(Br)cc2)c2cc(Br)c(OC(C)=O)cc12`, the Potency was active: 1.85 µM. For `O=C(Nc1ccccc1NC(=O)c1ccccc1F)c1ccccc1F`, the Potency was inconclusive [inhibitor, full curve, poor fit]. For `CC(c1ccco1)N(C(=O)C12CC3CC(CC(C3)C1)C2)c1ccccn1` (stereo not given), the Potency was inconclusive [inhibitor, single point]. With `CCOC(=O)C1(Cc2ccccc2C(F)(F)F)CCN(C(=O)c2cc(C)n(C)n2)CC1` the Potency was inconclusive [inhibitor, partial curve]. For `Cc1[nH]c2ccccc2c1C(=O)COC(=O)c1ccc2c(=O)n3c(nc2c1)CCC3`, the Potency was inconclusive [inhibitor, single point]. For `COc1ccc(-c2csc(NC(=S)NC(=O)/C=C/c3ccc(C(C)C)cc3)n2)cc1OC`, the Potency was inconclusive [inhibitor, single point]. For `O=C(CCn1cccc(C(F)(F)F)c1=O)Nc1cccc(C(F)(F)F)c1`, the Potency was “inactive”. In the case of `O=C(Nc1ccc(CN2CCOCC2)cc1)c1ccc(N2CCCC2)c([N+](=O)[O-])c1`, the Potency was inconclusive [inhibitor, partial curve]. With `Cc1ccc(NS(=O)(=O)c2ccc(Cl)c(C(=O)Nc3ccccc3-c3nc4ccccc4[nH]3)c2)cc1C` the Potency was active: 10.4 µM. For `Cc1ccc(/C=N\NC(=O)C2CC(=O)N(c3ccccc3)C2)o1` (stereo not given), the Potency was “inactive”. With `COc1ccc2[nH]c(=O)c(CN(Cc3cccs3)C(=S)Nc3cccc(C)c3)cc2c1` the Potency was active: 14.7 µM. With `CCC1=C2CC[C@H]3C(=O)N(CC)C(=O)[C@H]3[C@H]2[C@@]2(Cc3ccccc3)C(=NCCOC)OC(=O)N2C1=O` the Potency was “inactive”. For `CC(C)OCCCNC(=O)CN1C(=O)COc2ccc(S(=O)(=O)N3CCCCCC3)cc21`, the Potency was inconclusive [inhibitor, partial curve, poor fit]. For `CNc1nc(-c2ccc3c(c2)CCN3C(=O)c2ccc(F)cc2)cs1`, the Potency was “inactive”. In the case of `COCc1c(C(C)C)nc(C(C)C)c(/C=C/[C@@H](O)C[C@@H](O)CC(=O)O)c1-c1ccc(F)cc1`, the Potency was inconclusive [inhibitor, single point]. With `COc1ccc(N2CCN(C(=O)c3ccc4[nH]c(C)c(C)c4c3)CC2)cc1` the Potency was inconclusive [inhibitor, full curve, poor fit]. In the case of `COc1cc(-c2c(C#N)c(N)nc3c2CCCC3)cc(OC)c1OC`, the Potency was inconclusive [inhibitor, single point]. For `CCOc1ccc(-c2nnc(SCc3nc4ccccc4[nH]3)n2N)cc1`, the Potency was inconclusive [inhibitor, single point]. In the case of `CC1(C)Cc2c(sc3nc[nH]c(=O)c23)CO1`, the Potency was inconclusive [inhibitor, partial curve]. For `C/C(=N\Nc1ccc(S(=O)(=O)N2CCCCC2)cn1)c1cccc(Br)c1`, the Potency was active: 10.4 µM. With `Cc1ccc(NC(=O)C(c2ccccc2)N2CCN(CC(=O)N3CCOCC3)CC2)cc1Cl` (stereo not given) the Potency was inconclusive [inhibitor, single point]. In the case of `CCc1nnc(NC(=O)C2CCC(CNc3c(N4CCC(C)CC4)c(=O)c3=O)CC2)s1` (stereo not given), the Potency was inconclusive [inhibitor, partial curve]. In the case of `Fc1ccccc1N1CCN(c2nc(-c3cccs3)nc3ccccc23)CC1`, the Potency was inconclusive [inhibitor, single point]. For `O=C(CCC(=O)c1ccc(F)cc1)Nc1cccc(C(F)(F)F)c1`, the Potency was “inactive”. In the case of `CCN(C(=O)COC(=O)c1c(C)nn(-c2ccccc2)c1Cl)c1c(N)n(Cc2ccccc2)c(=O)[nH]c1=O`, the Potency was active: 10.4 µM. In the case of `Cc1scc(C(=O)N/N=C/c2ccc(Cl)s2)c1C`, the Potency was “inactive”. In the case of `CCc1ccc(OCc2nnc(SCC(=O)NCc3ccco3)o2)cc1`, the Potency was inconclusive [inhibitor, partial curve, poor fit]. In the case of `COc1ccc(CNC(=O)CCC2N=C3c4ccccc4N=C(SCC(=O)NCC4CCCO4)N3C2=O)cc1` (stereo not given), the Potency was inconclusive [inhibitor, partial curve, poor fit]. In the case of `CCn1cc(C(=O)O)c(=O)c2cc(F)c(N/N=C/c3ccccc3)cc21`, the Potency was inconclusive [inhibitor, single point]. In the case of `COCCNc1nc2c(c(=O)n(Cc3cccc(Br)c3)c(=O)n2C)n1C`, the Potency was inconclusive [inhibitor, single point]. For `Cc1ccc(N2CC(NS(=O)(=O)c3cccnc3)CC2=O)cc1` (stereo not given), the Potency was “inactive”. With `CN1CCC(=C(c2ccc(Cl)cc2)c2ccccn2)CC1` the Potency was inconclusive [inhibitor, single point]. For `COc1ccc(N(CC(=O)Nc2cc(OC)cc(OC)c2)S(=O)(=O)c2c(C)n[nH]c2C)cc1`, the Potency was inconclusive [inhibitor, partial curve]. With `COc1c(C)cc(NC(=O)c2ccc3c(c2)NC(=O)CO3)cc1C` the Potency was inconclusive [inhibitor, full curve, poor fit]. For `O=C(/C=C/c1ccco1)Nc1nc(-c2ccccc2)cs1`, the Potency was “inactive”. For `Cc1cc2cc(CNC(=O)c3ccc(S(=O)(=O)N4CCCC4)cc3)ccc2n1C`, the Potency was inconclusive [inhibitor, partial curve]. For `C=C1C(=O)O[C@H]2[C@H]1[C@H](OC(=O)CC(=O)O[C@@H]1C[C@@H](C)[C@@H]3C=CC(=O)[C@@]3(C)[C@H]3OC(=O)C(=C)[C@H]13)C[C@@H](C)[C@H]1C=CC(=O)[C@]12C`, the Potency was inconclusive [inhibitor, single point]. With `O=C(COC(=O)Cc1cccc(C(F)(F)F)c1)Nc1ccc2[nH]c(=O)[nH]c2c1` the Potency was “inactive”. For `COc1ccccc1NC(=O)NC(=O)c1ccccc1`, the Potency was “inactive”. In the case of `COc1ccc(-c2n[nH]c(=S)n2/N=C/C=C/c2ccccc2OC)cc1`, the Potency was “inactive”. With `CC12CCC(=O)N1C(C(=O)Nc1nc3ccc(Cl)cc3s1)CS2` (stereo not given) the Potency was “inactive”. For `Cn1c(=O)c2c(nc(SCc3ccccc3)n2Cc2ccc(Cl)cc2)n(C)c1=O`, the Potency was inconclusive [inhibitor, partial curve, poor fit]. For `CCOC(=O)N1CCN(C(=O)c2cc(COc3ccc4ncccc4c3)on2)CC1`, the Potency was inconclusive [inhibitor, single point]. With `Cc1ccc(-c2cn(-c3ccc(SC(F)F)cc3)c3[n+]2CCC3)cc1` the Potency was active: 0.37 µM. For `Cc1cccn2c(=O)c3cc(C(=O)NCC4CCCO4)c(=N)n(C4CCCC4)c3nc12` (stereo not given), the Potency was inconclusive [inhibitor, partial curve]. In the case of `CN1C[C@@H]2C(c3ccccc3)C3(c4cccnc4)CC2(C3)[C@H]1c1ccccc1` (stereo not given in full), the Potency was active: 11.7 µM. In the case of `CSCC[C@H](NC(=O)OC(C)(C)C)c1nnc(SCc2ccc(F)cc2)o1`, the Potency was inconclusive [inhibitor, partial curve]. For `CCCC(=O)N1CCN(c2nc3ccc(Br)cc3s2)CC1`, the Potency was “inactive”. For `C[C@@]12CCC3[C@@](CC[C@@H]4[C@](C)(C(=O)O)CCC[C@@]34C)(C[C@H]1O)C2` (stereo not given in full), the Potency was “inactive”. With `Cc1ccnc(NS(=O)(=O)c2ccc(NC(=O)c3ccc(S(=O)(=O)N4CC(C)OC(C)C4)cc3)cc2)n1` (stereo not given) the Potency was inconclusive [inhibitor, partial curve, poor fit]. For `COc1ccc(OC)c2[nH]c(=O)c(CCNC(=O)c3cccs3)cc12`, the Potency was inconclusive [inhibitor, partial curve, poor fit]. With `CC(OC(=O)c1nc(Cl)ccc1Cl)C(=O)Nc1ccc2c(c1)OCCO2` (stereo not given) the Potency was inconclusive [inhibitor, partial curve, poor fit]. With `Cc1c(C(=O)N2CCOCC2)[nH]c2ccc(OCc3ccccc3)cc12` the Potency was inconclusive [inhibitor, single point]. In the case of `CCCCN(C(=O)CSCC(=O)Nc1ccc(OC)cc1)c1c(N)n(CCC)c(=O)[nH]c1=O`, the Potency was inconclusive [inhibitor, single point]. In the case of `Cc1ccccc1CC(=O)c1ccc(O)c(C)c1O`, the Potency was inconclusive [inhibitor, full curve, poor fit]. For `COc1ccccc1N1CCN(CC(O)c2c(C)[nH]c3ccccc23)CC1` (stereo not given), the Potency was “inactive”. With `O=C(Nc1ncccn1)c1cccc(F)c1` the Potency was “inactive”. For `CC1=CC(C)(C)N2C(=O)C3(SCC(=O)N3c3ccc(O)cc3)c3cc(C)cc1c32` (stereo not given), the Potency was inconclusive [inhibitor, single point]. For `CC(=O)C1=C(O)C(=O)N(CCc2c[nH]c3ccccc23)C1c1ccc(O)cc1` (stereo not given), the Potency was inconclusive [inhibitor, partial curve, poor fit]. In the case of `Cn1nccc1C(=O)OCC(=O)Nc1ccccc1Cl`, the Potency was “inactive”. For `CC1CCN(CCCNC(=O)c2coc3nc4ccccc4nc23)CC1`, the Potency was inconclusive [inhibitor, single point]. In the case of `CCn1c(-c2cccn(Cc3ccc(Cl)cc3Cl)c2=O)n[nH]c1=S`, the Potency was inconclusive [inhibitor, single point]. With `NS(=O)(=O)c1ccc(CCNC2CC(=O)N(CCc3ccccc3)C2=O)cc1` (stereo not given) the Potency was “inactive”. In the case of `Cc1ccc(NCC(=O)Nc2cccc(S(=O)(=O)N(C)C)c2)cc1S(=O)(=O)N1CCCCCC1`, the Potency was inconclusive [inhibitor, single point].
